Measured values from PubChem BioAssay (NCI).
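The compound was tested at five concentrations on cells cultured in 96-well plates, with a 48-hour exposure period. Here, GI50 denotes the concentration required for 50% inhibition of growth. Definition used: TGI = concentration required for complete inhibition of growth.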

test system: NCI-H322M lung; assay: DTP human tumour cell line panel, 48 h

`Cc1c(/C=N/NC(=S)Nc2cccc(Cl)c2)c(=O)n(-c2ccccc2)n1C` and `O=c1oc2cc(N=Cc3ccccc3Cl)ccc2c2ccccc12` cannot be ordered by TGI: over 100 µM for the first, over 100 µM for the second.

`C=C(C)[C@@H]1CC[C@]2(C)CC[C@]3(C)[C@H](CC[C@@H]4[C@@]5(C)CC[C@H](OC(=O)c6ccccc6)C(C)(C)[C@@H]5CC[C@]43C)[C@@H]12` and `CO[C@H]1O[C@@H]2CO[C@@H](c3ccccc3)O[C@H]2[C@@H]2CC=CCC[C@]12O` cannot be ordered by TGI: over 100 µM for the first, over 100 µM for the second.

`COc1ccc(OC)c([N+](=O)[O-])c1-c1nc2sccn2c1/C=N/N=C(N)N` and `COc1ccc(C2=C(Cl)c3cc(OC)c(OC)cc3C2=O)cc1OC` cannot be ordered by TGI: over 100 µM for the first, over 100 µM for the second.

Going from `Cc1cc(Cc2cc(C)c(O)c(C)c2)cc(C)c1O` to `COc1cc2cc[n+](C)c(Cc3ccccc3)c2cc1OC`, the TGI rises from 85.6 µM to over 100 µM.

`CN(C)c1ccc(-c2ccc(-c3ccc(C(=N)N)c(F)c3)s2)cc1` and `CCCCN(CCCC)c1ccc(C(=N)c2ccc(N(C)C)cc2)cc1` are within 1.5-fold of each other in TGI: 2.73 µM for the first, 2.48 µM for the second.

`COc1ccc(NS(=O)c2ccc(-c3ccccc3)cc2)cc1` (stereo unspecified) and `NC(=O)c1cc(-c2ccncc2)cc(-c2ccccc2)c1N` cannot be ordered by TGI: over 100 µM for the first, over 25 µM for the second.

Going from `COc1ccc(C[n+]2c3ccccc3n3c4ccc(N)cc4ccc32)c(OC)c1OC` to `COc1cc2c(c(OC)c1OC)C(=O)CC(c1cccc(NC(=O)c3ccc(Br)cc3)c1)O2` (stereo unspecified), the TGI rises from 90.4 µM to over 100 µM.

First: FC(F)(F)c1nc2ccc(SSc3ccc4nc(C(F)(F)F)[nH]c4c3)cc2[nH]1
Second: O=C(O)c1nc2cc(C(F)(F)F)ccc2nc1Nc1ccc(Cl)c(Cl)c1
The TGI of the first is higher: over 100 µM for the first, 63.8 µM for the second.

`Nc1nc(Cl)c(N)c(NCC2(CO)CC(Cc3ccccc3)C2)n1` (stereo unspecified) and `N#Cc1nc(CSCc2ccccc2)oc1N` cannot be ordered by TGI: over 100 µM for the first, over 100 µM for the second.

`C=CCC1C(=O)C(C(=O)OC)N2CCc3c([nH]c4ccccc34)C12` (stereo unspecified) and `N=Nc1c(OC(=O)Nc2ccccc2)[nH]c2ccccc12` cannot be ordered by TGI: over 100 µM for the first, over 100 µM for the second.

`O=C(O)c1c[nH]c2c(=O)[nH]cnc12` and `CN(Cc1cnc(N)nc1N)c1ccc(C(=O)O)cc1` cannot be ordered by TGI: over 100 µM for the first, over 100 µM for the second.

Compared with `CCCCCCCC(=O)OC[C@@H](C[As](=O)(O)O)OC(=O)CCCCCCC`, `CN1CCC(CNC(=O)CCCCCCCCC(=O)NCC2(c3ccccc3)CCN(C)CC2)(c2ccccc2)CC1` is higher in TGI: 27 µM for the first, over 100 µM for the second.

First: Clc1cc(OCc2nn3c(Cc4ccccc4)nnc3s2)ccc1OCc1nn2c(Cc3ccccc3)nnc2s1
Second: O=C(Cc1nc2ccccc2c(=O)n1-c1c(Cl)cccc1Cl)c1ccncc1
The TGI of the first is higher: over 100 µM for the first, 81.4 µM for the second.

Going from `COc1ccc(CN2C(=O)C(Cc3cc(OC)c(OC)c(C)c3OC)NC(=O)/C2=C/c2cc(OC)c(OC)c(C)c2OC)cc1` (stereo unspecified) to `CC1=CC[C@@H]2C(C)(C)C(=O)CC[C@@]2(C)[C@@H]1COc1ccc2ccc(=O)oc2c1`, the TGI falls from over 100 µM to 81.3 µM.

`Cn1cc(C2=C(c3c4n(c5ccccc35)CCCC4)C(=O)NC2=O)c2ccccc21` and `Cc1cc(C)nc(NS(=O)(=O)c2ccc(NN=c3c4ccccc4n(C)c4ccccc34)cc2)n1` cannot be ordered by TGI: over 25 µM for the first, over 100 µM for the second.

Compared with `O=C(O)CN=C(C(=NCC(=O)O)c1ccccc1)c1ccccc1`, `Cc1c(C(=O)CC(=O)C(=O)Nc2c(C(C)C)cccc2C(C)C)[n+](=O)c2ccccc2n1[O-]` is lower in TGI: over 100 µM for the first, 26.9 µM for the second.

`COc1cc(/C=N/Nc2ncnc3c2cnn3C(C)C)ccc1O` and `COc1cc([N+](=O)[O-])c(S(=O)(=O)O)cc1NS(=O)(=O)c1ccc(C)cc1` cannot be ordered by TGI: over 25 µM for the first, over 100 µM for the second.

`COc1cc(=O)oc(/C=C/C=O)c1C` and `CC1=C(C)C(=O)C2=C(OCCCO2)C1=O` cannot be ordered by TGI: over 100 µM for the first, over 100 µM for the second.

Compared with `Cc1c(C)c2c(c(C)c1NC(=O)/C=C\C(=O)O)CCC(C)(CCCC(C)CCCC(C)CCCC(C)C)O2` (stereo unspecified), `C=C[C@@H](OCOCC[Si](C)(C)C)[C@@H](CC)OC(CCCOC(=O)C(C)(C)C)OC` (stereo partly specified) is higher in TGI: 4.41 µM for the first, over 100 µM for the second.

`COc1cccc(/C(CC(O)(C(F)(F)F)C(F)(F)F)=N\N(C)C)c1` and `CNC(C)Cc1ccccc1O` (stereo unspecified) cannot be ordered by TGI: over 100 µM for the first, over 100 µM for the second.

`COc1ccc(C(C#N)NC23CC4CC(CC(C4)C2)C3)cc1OC` (stereo unspecified) and `CSc1c(C#N)c(O)n(-c2ccc(C)cc2)c(=O)c1C#N` cannot be ordered by TGI: over 100 µM for the first, over 100 µM for the second.

`C=C1C(=O)O[C@H]2[C@H]1CC/C(Cn1cc(CNCCc3c[nH]c4ccc(Cl)cc34)nn1)=C\CC[C@@]1(C)O[C@@H]21` and `CC(=O)Nc1ccc(-c2c3nc(c(-c4cc5ccccc5[n+](C)c4)c4ccc([nH]4)c(-c4ccc(NC(C)=O)cc4)c4nc(c(-c5cc6ccccc6[n+](C)c5)c5ccc2[nH]5)C=C4)C=C3)cc1` cannot be ordered by TGI: 98.5 µM for the first, over 50 µM for the second.

`NCCC(=O)N[C@H](Cc1cc(O)c(O)c(SCC(NC(=O)CC[C@H](N)C(=O)O)C(=O)NCC(=O)O)c1)C(=O)O` (stereo partly specified) and `CCC(C)C(C(=O)N/N=C1/SCC(=O)N1C)C(=O)N/N=C1/SCC(=O)N1C` (stereo unspecified) cannot be ordered by TGI: over 50 µM for the first, over 100 µM for the second.

`CC(C)N(C(=O)C12C3C4C5C3C1(C(=O)N(C(C)C)C(C)C)C5(C#N)C42)C(C)C` (stereo unspecified) was tested, and the TGI was over 100 µM.

First: Cc1cc(Cc2cc(C)c(O)c(C)c2)cc(C)c1O
Second: CN(C)c1ccc(-c2ccc(-c3ccc(C(=N)N)c(F)c3)s2)cc1
The GI50 of the first is 8.8-fold higher: 12.1 µM for the first, 1.37 µM for the second.

First: COc1ccc(C[n+]2c3ccccc3n3c4ccc(N)cc4ccc32)c(OC)c1OC
Second: COc1cc2c(c(OC)c1OC)C(=O)CC(c1cccc(NC(=O)c3ccc(Br)cc3)c1)O2 (stereo unspecified)
The GI50 of the first is 2.6-fold higher: 14.1 µM for the first, 5.5 µM for the second.

`FC(F)(F)c1nc2ccc(SSc3ccc4nc(C(F)(F)F)[nH]c4c3)cc2[nH]1` and `CN(Cc1cnc(N)nc1N)c1ccc(C(=O)O)cc1` cannot be ordered by GI50: over 100 µM for the first, over 100 µM for the second.

`Cn1cc(C2=C(c3c4n(c5ccccc35)CCCC4)C(=O)NC2=O)c2ccccc21` and `NC(=O)c1cc(-c2ccncc2)cc(-c2ccccc2)c1N` cannot be ordered by GI50: over 19.4 µM for the first, over 24.1 µM for the second.

Compared with `COc1cc(/C=N/Nc2ncnc3c2cnn3C(C)C)ccc1O`, `CC1=CC[C@@H]2C(C)(C)C(=O)CC[C@@]2(C)[C@@H]1COc1ccc2ccc(=O)oc2c1` is 1.8-fold higher in GI50: 12.3 µM for the first, 22.7 µM for the second.

First: Cc1c(C)c2c(c(C)c1NC(=O)/C=C\C(=O)O)CCC(C)(CCCC(C)CCCC(C)CCCC(C)C)O2 (stereo unspecified)
Second: CCCCN(CCCC)c1ccc(C(=N)c2ccc(N(C)C)cc2)cc1
The GI50 of the first is 1.9-fold higher: 1.96 µM for the first, 1.05 µM for the second.

Compared with `C=C1C(=O)O[C@H]2[C@H]1CC/C(Cn1cc(CNCCc3c[nH]c4ccc(Cl)cc34)nn1)=C\CC[C@@]1(C)O[C@@H]21`, `CC(=O)Nc1ccc(-c2c3nc(c(-c4cc5ccccc5[n+](C)c4)c4ccc([nH]4)c(-c4ccc(NC(C)=O)cc4)c4nc(c(-c5cc6ccccc6[n+](C)c5)c5ccc2[nH]5)C=C4)C=C3)cc1` is higher in GI50: 23.6 µM for the first, over 50 µM for the second.
